The whole screen tested about 48,000 compounds, of which about 550 (1.1%) were called active. Not shown: some 4% with an inconclusive outcome. Cut-off read from the data, not from the text of the source: active = potency below about 15 µM; inconclusive = mostly about 16 µM to 33 µM; inactive = weaker than that. This is one part of the list.
Target: Lysosomal acid glucosylceramidase (Homo sapiens) (UniProt P04062)
Test: Glucocerebrosidase;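 note: the screen sought inhibitors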
Conditions: purified enzyme, resorufin glucoside fluorescence (screen aimed at inhibitors), 20 min
Outline: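 Normal human glucocerebrosidase (0.2 nM final) was assayed with resorufin β-D-glucopyranoside (30 uM final) in 50mM citric acid/KH2PO4, 10mM sodium taurocholate, 0.01% tween-20, pH 5.9. Compounds were titrated; fluorescence (Ex 548, Em 600) read after 20 min at RT.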
Potency is the fitted concentration of half-maximal effect.

Sequence of UniProt P04062 (P04062 whole entry, looked up): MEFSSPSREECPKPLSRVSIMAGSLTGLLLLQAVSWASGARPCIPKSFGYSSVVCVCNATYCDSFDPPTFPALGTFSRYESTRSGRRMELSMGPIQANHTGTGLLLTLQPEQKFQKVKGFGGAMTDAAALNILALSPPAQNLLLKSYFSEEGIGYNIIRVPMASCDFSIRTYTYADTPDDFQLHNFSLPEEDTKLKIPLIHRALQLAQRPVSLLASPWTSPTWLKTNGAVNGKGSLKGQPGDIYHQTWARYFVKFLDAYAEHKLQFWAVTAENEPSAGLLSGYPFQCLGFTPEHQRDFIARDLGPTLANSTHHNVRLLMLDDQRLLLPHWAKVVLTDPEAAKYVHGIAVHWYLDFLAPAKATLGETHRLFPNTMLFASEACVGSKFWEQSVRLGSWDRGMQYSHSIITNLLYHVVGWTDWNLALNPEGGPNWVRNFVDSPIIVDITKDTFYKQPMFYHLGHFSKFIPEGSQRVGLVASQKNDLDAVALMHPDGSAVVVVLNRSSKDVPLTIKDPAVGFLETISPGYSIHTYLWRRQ

Potency, inactive:
COc1ccc(C2C3=C(Nc4ncnn42)c2ccccc2CCC3)cc1 (configuration not stated) > 76.9 µM, CC1=C(C(=O)Nc2ccccn2)C(c2ccc(N(C)C)cc2)n2ncnc2N1 (configuration not stated) > 76.9 µM, O=C(Nc1ccccc1)Nc1ccccn1 > 76.9 µM, Cc1occc1C(=O)n1cnc2ccccc21 > 76.9 µM, CCOC(=O)C1CCCN(C(=O)c2ccc3c(=O)n(CCOC)c(=S)[nH]c3c2)C1 (configuration not stated) > 76.9 µM, Cc1ccc(N(CC(N)=O)C2SC(=O)N(C)C2=O)cc1 (configuration not stated) > 76.9 µM, O=C(CN(c1ccc2c(c1)OCCO2)S(=O)(=O)c1ccccc1)Nc1ccc2c(c1)OCO2 > 76.9 µM, O=C(CNS(=O)(=O)c1cccs1)Nc1ccc2c(c1)OCCO2 > 76.9 µM, CN(CCc1ccccn1)C(=O)CCNC(=O)Cn1cnc2ccccc2c1=O > 76.9 µM, Cc1ccc(C(=O)N2CCC(C(N)=O)CC2)cc1C > 76.9 µM, CCCCCOC(=O)Cc1c(O)c2ccccc2n(C)c1=O > 76.9 µM, COC(=O)c1cccc(NC(=O)Cn2nnc3ccccc32)c1 > 76.9 µM, Cc1ccc2nc(NC3=NCN(CCc4ccccc4)CN3)nc(C)c2c1 > 76.9 µM, CC(=O)Nc1ccccc1OCC(=O)c1ccc2c(c1)OCO2 > 76.9 µM, CN1CCN(c2nc(N3CCN(CCO)CC3)nc3ccccc23)CC1 > 76.9 µM, COC(=O)C(C(=O)Nc1cc(C)on1)C1CCCCCC1 (configuration not stated) > 76.9 µM, Cc1ccccc1N1CC(c2nc3ccccc3[nH]2)CC1=O (configuration not stated) > 76.9 µM, O=C(Oc1ccc(OC(=O)c2ccncc2)cc1)c1ccncc1 > 76.9 µM, O=C(O)C1CCCN1S(=O)(=O)c1ccc(Br)s1 (configuration not stated) (tested in a mixture with another compound) > 76.9 µM, CCOC(=O)c1[nH]c(C)c(CCC(=O)OC)c1C > 76.9 µM, CCc1nnc(NC(=O)CCC(=O)N2CCN(Cc3ccccc3)CC2)s1 > 76.9 µM, CC(C)(C)C1=Nn2c(nnc2-c2n[nH]c3c2CCC3)SC1 > 76.9 µM, O=C1CC(SCc2nc3ccccc3[nH]2)C(=O)N1c1cccc(F)c1 (configuration not stated) > 76.9 µM, C=C(C)CSc1nc(N)c2c(C)c(C)sc2n1 > 76.9 µM, CC(=O)c1ccc(N2C(=NC(=O)C(C)C)SC3CS(=O)(=O)CC32)cc1 (configuration not stated) > 76.9 µM, O=C1NC(=O)C2C3c4ccccc4C(c4ccccc43)C12 (configuration not stated) > 76.9 µM, CCOC(=O)c1ccc2nc(C(F)(F)F)[nH]c(=O)c2c1 > 76.9 µM, CC(C(=O)Nc1ccc2c(c1)OCO2)N(c1ccc(Cl)cc1)S(C)(=O)=O (configuration not stated) > 76.9 µM, c1ccc(C2C3=C(Nc4ncnn42)c2ccccc2CCC3)cc1 (configuration not stated) > 76.9 µM, CCOC(=O)NC(=O)CSc1nnnn1-c1ccccc1 > 76.9 µM, COc1ccc(S(=O)(=O)NCCC(=O)NCc2ccc(F)cc2)cc1 > 76.9 µM, CCS(=O)(=O)N1CCCC(C(=O)N2CCc3ccccc3C2)C1 (configuration not stated) > 76.9 µM, O=C(NCc1ccc(N2CCCC2=O)cc1)c1cn(Cc2ccccc2)nn1 > 76.9 µM, CSCCC(NC(=O)c1cc(C(C)(C)C)oc1C)C(=O)O (configuration not stated) > 76.9 µM, CCOCCCn1c(=NC(C)=O)c(C(=O)OCC)cc2c(=O)n3ccccc3nc21 > 76.9 µM, N#Cc1c2n(c3c(=O)n(Cc4ccccc4)cnc13)CCCC2 > 76.9 µM, CCOC(=O)N1CCN(S(=O)(=O)c2ccc3[nH]cc(C(=O)O)c(=O)c3c2)CC1 > 76.9 µM, CCn1c(=O)cc(SCC(=O)Nc2ccc3c(c2)OCCO3)c2ccccc21 > 15.4 µM, CCOC(=O)C1=C(C)NC(C)=C(C(=O)OCC)C1C(=O)OC1CCOC1=O (configuration not stated) > 76.9 µM, Cc1ccc2[nH]c(=O)c(N3CCOCC3)c(-c3ccccc3)c2c1 > 76.9 µM, CCc1nnc2n1N=C(c1ccc(-c3cc(Cl)ccc3Cl)o1)CS2 > 76.9 µM, COCCN1C(=O)c2oc3c(C)cc(C)cc3c(=O)c2C1c1cccc(O)c1 (configuration not stated) > 76.9 µM, CC1=C(C(=O)OC(C)C)C(/C=C/c2ccccc2)NC(=O)N1 (configuration not stated) > 76.9 µM, Cc1c(C(=O)OC(C)CCN(C)C)oc2ccccc12 (configuration not stated) > 76.9 µM, CCOC(=O)N1CCC(n2c(SCC(=O)Nc3nccs3)nc3ccsc3c2=O)CC1 > 76.9 µM, O=c1cc(O)c2c(=O)n3c4c(cccc4c2o1)CCC3 > 76.9 µM, CSc1nc(-c2ccccc2O)nc(-c2ccccc2O)n1 > 76.9 µM, COc1ccc(-c2noc(-c3ccccc3C(=O)NCc3ccco3)n2)cc1OC > 76.9 µM, CN(C)c1ccc(-c2nnn(CC(=O)N3c4ccccc4CCc4ccccc43)n2)cc1 > 76.9 µM, c1ccc(Cn2nnnc2C(c2cccs2)N2CCc3ccccc3C2)cc1 (configuration not stated) > 76.9 µM, Cc1noc(C)c1CSc1nnc(-c2ccccc2F)n1CCc1ccccc1 > 76.9 µM, Cc1ccc(S(=O)(=O)N2CCN(C(=O)C3Cc4ccccc4CN3C(=O)c3ccco3)CC2)cc1 (configuration not stated) > 76.9 µM, O=C(Nc1ccccc1)N1CCCN(Cc2ccccc2F)C1, CCn1c(SCC(=O)Nc2cc(C)ccc2C)nnc1-c1cnccn1 > 76.9 µM, COC(=O)c1ccc(C(=O)OC)c(NC(=O)CN2CCN(c3ccccc3)CC2)c1 > 76.9 µM, COC(=O)c1sc(NC(=O)c2cnccn2)c(C(=O)OC)c1C > 76.9 µM, Cc1cc(C(=O)NCCCN2CCCC2=O)cs1 > 76.9 µM, CC(C)NC(=O)c1ccc2c(c1)nnn2C > 76.9 µM, N#Cc1cc2c(nc1SCC(=O)NCc1ccc3c(c1)OCO3)CCCCC2 > 76.9 µM, N#C/C(=C\c1ccc(O)c(O)c1)S(=O)(=O)c1ccccc1, COc1ccc(CC(CC(=O)O)C(=O)Nc2ccccc2)cc1 (configuration not stated) > 76.9 µM, COc1cc(CC(=O)OCC(=O)Nc2ccc(S(=O)(=O)N3CCCC3)cc2)cc(OC)c1OC > 76.9 µM, CC1CCN(S(=O)(=O)c2ccc3[nH]c(=O)cc(C(=O)O)c3c2)CC1 > 76.9 µM, O=C1CC(N2CCN(c3nc4ccccc4s3)CC2)C(=O)N1Cc1cccs1 (configuration not stated) > 76.9 µM, CCCCn1nc(C(=O)O)ccc1=O > 76.9 µM, COc1ccccc1NC(=O)c1ccc(Br)o1 > 76.9 µM, CCCCCc1c(C)nc(Nc2ccccc2)[nH]c1=O > 76.9 µM, OCCCCNc1cccc2ccccc12 > 76.9 µM, O=C(NCCNCCO)c1c(O)c2cccc3c2n(c1=O)CCC3 > 76.9 µM, CCCOC(=O)C1C2C=C[C@]3(CN(CCc4ccccc4)C(=O)[C@H]13)O2 (some centres not stated) > 76.9 µM, CN(C)CCC(=O)c1ccc(Cl)cc1 > 76.9 µM, c1ccc(-c2nnc3sc(CN4CCc5ccccc54)cn23)cc1 > 76.9 µM, CCOC(=O)c1sc(N)c(C#N)c1CSc1nnc(C2CCCCC2)n1N > 76.9 µM, CCNC(=O)CSc1nc2cc(OC)c(OC)cc2c(=O)n1CCC1=CCCCC1 > 76.9 µM, CC(C)(C)c1cc(C(=S)N2CCN(CCO)CC2)cc(C(C)(C)C)c1O, Cc1ccc(S(=O)(=O)N2CCCC(C(=O)NCc3ccccn3)C2)cc1 (configuration not stated) > 76.9 µM, O=C(Nc1ccc(Br)c(Cl)c1)C1CC1 > 76.9 µM, Cc1ccc(OC(=O)c2ccc(C)c(C)c2)cn1 > 76.9 µM, CSc1nc(N)nc(SCC(=O)c2ccccc2)c1C#N > 76.9 µM, O=C(Cn1ncc2c(=O)oc3ccccc3c21)NCCC1=CCCCC1 > 76.9 µM, Cc1cnc(-c2nnc(N(C)C(=O)c3cccnc3)s2)cn1 > 76.9 µM, CCOc1ccc(OCC)c(NC(=O)CSc2nc3c(c(=O)n(C)c(=O)n3C)n2CC)c1 > 76.9 µM, COc1ccc(-n2ccnc2SCC(=O)Nc2ccccc2)cc1 > 76.9 µM, Cc1cc(C)n(-c2nc(SCC(=O)NCC3CCCO3)c3c4c(sc3n2)CCCC4)n1 (configuration not stated) > 76.9 µM, CN(C(=O)CSc1nnc(-c2ccco2)o1)C1CCCCC1 > 76.9 µM, COc1ccc(C)cc1NC(=O)CN1CCN(c2ccc(F)cc2)CC1 > 76.9 µM, CCn1c(=NC(=O)CSC(C)=O)sc2cc(F)ccc21 > 76.9 µM, Cn1nnc2cc(NC(=O)NCc3ccc4c(c3)OCO4)ccc21 > 76.9 µM, Nc1nnc(SCC(=O)NC2CCCCC2)n1-c1ccccc1 > 76.9 µM, COc1ccc(Br)cc1S(=O)(=O)n1ccnc1C > 76.9 µM, O=c1c2ccccc2nc2n1-c1ccccc1CCC2 > 76.9 µM, CCOc1cc2c(cc1OCC)C(C(=O)O)C(c1ccc(OC)c(O)c1)N(C)C2=O (configuration not stated) > 76.9 µM

Reference: PubChem BioAssay AID360 (National Center for Advancing Translational Sciences (NCATS), 2006)
